{"source": "PubChem BioAssay AID1346428", "about": "(National Center for Advancing Translational Sciences (NCATS), 2018)", "note": "“And” between values parts separate entries of the source, which are not always exact repeats. Identical values can stand only once. Among all 48,000 compounds or so, about 1,200 (2.5%) were called active. Another 2% or so got no clear call; they are omitted.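 How the source made its calls: active means activation of at least 60% and not above a set upper limit (about 1 call in 100 departs from these limits); inconclusive means activation of 40% to 60%, or above that upper limit; inactive means activation under 40%.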 The list shows a part of the results.", "data": [{"target": "Probable G-protein coupled receptor 32 (Homo sapiens) (UniProt O75388)", "sequence (O75388 whole entry, looked up)": "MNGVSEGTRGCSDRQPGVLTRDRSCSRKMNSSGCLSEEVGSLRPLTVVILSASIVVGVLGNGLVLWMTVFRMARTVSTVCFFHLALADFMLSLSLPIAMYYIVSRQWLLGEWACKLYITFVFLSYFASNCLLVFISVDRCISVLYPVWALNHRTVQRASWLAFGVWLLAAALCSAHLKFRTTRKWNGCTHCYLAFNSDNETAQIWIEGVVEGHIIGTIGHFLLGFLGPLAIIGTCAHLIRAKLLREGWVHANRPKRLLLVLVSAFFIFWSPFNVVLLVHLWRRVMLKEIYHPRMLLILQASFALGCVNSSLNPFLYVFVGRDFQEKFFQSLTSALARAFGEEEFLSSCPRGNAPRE", "experiment": "qHTS for Agonists of Human Resolvin D1 Receptor DRV1; further: 0% is about no effect", "settings": "CHO-K1 GPR32 beta-arrestin PathHunter luminescence, 90 min; at 76.9 µM; hits give high values; zero percent set by DMSO-only wells", "how_it_was_run": "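Step 1: seed CHO-K1 GPR32 beta-arrestin cells, 2,500/well, overnight at 37 °C. Step 2: add compounds, 90 min at 37 °C. Step 3: detection reagent, 1 h ambient, then luminescence.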", "values": [{"smiles": "COc1ccc(-c2ccc(NS(=O)(=O)c3ccc(NC(C)=O)cc3)cc2)nn1", "activation": "inactive: -21.2%"}, {"smiles": "COc1ccc(OC)c(NC(=O)c2c(NCc3cccs3)sc3c2CCCCC3)c1", "activation": "inactive: -6.75%"}, {"smiles": "CCN(CC)c1ccc(NC(=O)c2c(C)nn(-c3ccc(F)cc3)c2-n2cccc2)c(C)c1", "activation": "inactive: 22.9%"}, {"smiles": "CCc1ccccc1NC(=O)CN(C)S(=O)(=O)c1cccc2nsnc12", "activation": "inactive: -6.13%"}, {"smiles": "CCOc1ccccc1NC(=O)CSc1c2c(nc3ccc(Cl)cc13)CCCC2", "activation": "inactive: -32.6%"}, {"smiles": "COc1ccc(S(=O)(=O)N(CC(=O)NCCSc2ccc(C)cc2)c2ccc(C)cc2)cc1", "activation": "inactive: 3.2%"}, {"smiles": "NC(=O)n1c(O)c(C(=O)c2cccs2)c2cc(Cl)ccc21", "activation": "inactive: -0.0959%"}, {"smiles": "CCc1c(-c2ccccc2)nc2ccccc2c1C(=O)NC(C)c1ccccc1", "note": "(centres undefined)", "activation": "inactive: -18.2%"}, {"smiles": "Cc1[nH]c2ccc(C(=O)NCCCN3CCCCC3)cc2c1C", "activation": "inactive: -15.5%"}, {"smiles": "COc1ccc(-c2noc(CNC(=O)c3cc(OC)c(OC)c(OC)c3)n2)cc1", "activation": "inactive: 6.73%"}, {"smiles": "CC1CCc2onc(C(=O)Nc3ccc(Cl)cc3)c2C1", "note": "(centres undefined)", "activation": "inactive: -5.11%"}, {"smiles": "Cc1nc2c(c(C)c1CCC(=O)NCc1ccc(F)cc1)c(=O)n(C)c(=O)n2C", "activation": "inactive: -9.35%"}, {"smiles": "CCCN(c1ccccc1F)S(=O)(=O)c1ccc2c(c1)C(C)(C)C(=O)N2C", "activation": "inactive: -1.75%"}, {"smiles": "CC(=O)N1CCC(N(Cc2ccc(C)o2)C(=O)Nc2ccccc2F)CC1", "activation": "inactive: 10.8%"}, {"smiles": "CCOc1ccccc1NC(=O)Cn1nnc(C(=O)NCc2cccs2)c1N", "activation": "inactive: 10.6%"}, {"smiles": "CCOC(=O)c1cc(OC(=O)c2ccccc2F)n(-c2ccccc2)n1", "activation": "inactive: 46%"}, {"smiles": "CCOc1c(Br)cc(C2C=C(C(=O)O)Nc3ncnn32)cc1OC", "note": "(centres undefined)", "activation": "inactive: -8.07%"}, {"smiles": "COc1ccc(NCc2cc3cc4c(cc3n(CC(=O)Nc3ccc(C)cc3C)c2=O)OCO4)cc1", "activation": "inactive: -56%"}, {"smiles": "CC(=O)N1c2ccccc2C(=O)C1N1CCN(c2ccc(Cl)cc2)CC1", "note": "(centres undefined)", "activation": "inactive: -32.6%"}, {"smiles": "O=C(NCc1ccccc1)c1cc(Sc2cccc(Cl)c2)nc2ccccc12", "activation": "inactive: -18.7%"}, {"smiles": "Nc1nc2c(ncn2COCCO)c(=O)[nH]1", "activation": "inactive: -5.02% and inactive: 6.29%"}, {"smiles": "Cc1ccc(-c2nc(S(=O)(=O)c3ccc(F)cc3)c(N3CCN(c4ccccc4)CC3)o2)cc1", "activation": "inactive: 4.99%"}, {"smiles": "CC(C)C[C@H](N)c1nnc(SCc2ccc(Cl)cc2Cl)o1", "activation": "active: 76.7%"}, {"smiles": "CC1=C(c2ccc(C(C)C)cc2)S(=O)(=O)N=C1N1CCN(c2ccccc2F)CC1", "activation": "inactive: -6.91%"}]}]}
